Some of the results follow. At the low end of the ranking the order means little.
Target: GST-SBP-SLBP (stem-loop binding protein) (UniProt Q14493)
Experiment: targeted RNA Bind-n-Seq;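 also: DESeq read counts versus GST-SBP nonspecific binding control pulldown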
Details: RBNS binding buffer: 25 mM Tris pH 7.5, 150 mM KCl, 3 mM MgCl2, 0.1% Tween, 0.5 mg/mL BSA, 1 mM DTT; 27 nM protein, 750 pM RNA pool; temperature not stated; high values mean tight binding

| Sequence | binding signal (log2 fold change) |
| --- | --- |
| GGUCACGUCUCAAUCAACUCUUCCCCCAGGGAAACCCCUGGUAUAUUCAACAGCUCGCAGUCAAG | -0.14 |
| GGUCACGUCUCAAUCAACUCUAUGUCAGGAGUUUCCUCCUGUUUUUUCAACAGCUCGCAGUCAAG | -0.178 |
| GGUCACGUCUCAAUCAACUCAAUCUCCAGGGAAACCCCUGGUUAUCUCAACAGCUCGCAGUCAAG | -0.0801 |
| GGUCACGUCUCAAUCAACUCUUUCUCCAGGGAAAACCCUGGUAAUCUCAACAGCUCGCAGUCAAG | -0.196 |
| GGUCACGUCUCAAUCAACUCUUUUUCCAGGGAAACCCCUGGUAUGUUCAACAGCUCGCAGUCAAG | -0.00643 |
| GGUCACGUCUCAAUCAACUCUCUAGAGGGGGGGAAAACCCCUUUGCCCUCACUUUCAACAGCUCGCAGUCAAG | -0.55 |
| GGUCACGUCUCAAUCAACUCUUCUCCCAGGGAAACCCCUGGUUAUCUCAACAGCUCGCAGUCAAG | -0.149 |
| GGUCACGUCUCAAUCAACUCCAUAGAGGGGGGGAAAACCCCUUUGCCCUCCACAUCAACAGCUCGCAGUCAAG | -0.0358 |
| GGUCACGUCUCAAUCAACUCUUUUUCCAGGGAAAACCCUGGUUAUGUCAACAGCUCGCAGUCAAG | 0.0187 |
| GGUCACGUCUCAAUCAACUCUAUUUCAGGAGUUUACUCCUGUUAACUCAACAGCUCGCAGUCAAG | -0.12 |
| GGUCACGUCUCAAUCAACUCAUCCUCCAGGGAAAGCCCUGGCAAACUCAACAGCUCGCAGUCAAG | -0.259 |
| GGUCACGUCUCAAUCAACUCUUCCUCAGGAGUUUACUCCUGCAUUCUCAACAGCUCGCAGUCAAG | 0.0893 |
| GGUCACGUCUCAAUCAACUCUUCGUCAGGAGUUUACUCCUGCAUAUUCAACAGCUCGCAGUCAAG | -0.0285 |
| GGUCACGUCUCAAUCAACUCAGUCCCAGGAGUUUACUCCUGCUAAUUCAACAGCUCGCAGUCAAG | 0.118 |
| GGUCACGUCUCAAUCAACUCUUCGCCAGGAGUUUUCUCCUGUAUAUUCAACAGCUCGCAGUCAAG | -0.0303 |
| GGUCACGUCUCAAUCAACUCUUCGUCCAGGGAAAUCCCUGGUUAUCUCAACAGCUCGCAGUCAAG | 0.111 |
| GGUCACGUCUCAAUCAACUCAAUAGAGGGGGGGAAAACCCCUUUGCCCUCAGAAUCAACAGCUCGCAGUCAAG | -0.00936 |
| GGUCACGUCUCAAUCAACUCUUCGUCCAGGGAAAACCCUGGUUAAUUCAACAGCUCGCAGUCAAG | -0.0227 |
| GGUCACGUCUCAAUCAACUCUUUCCCCAGGGAAAGCCCUGGCAAUGUCAACAGCUCGCAGUCAAG | -0.0371 |
| GGUCACGUCUCAAUCAACUCAUCCCCAGGAGUUUCCUCCUGCAAACUCAACAGCUCGCAGUCAAG | 0.0262 |
| GGUCACGUCUCAAUCAACUCCUACGAGGGGGGGAAAACCCCUUUACCCUCUAUAUCAACAGCUCGCAGUCAAG | 0.0141 |
| GGUCACGUCUCAAUCAACUCAUCCUCAGGAGUUUACUCCUGUAAUCUCAACAGCUCGCAGUCAAG | 0.0944 |
| GGUCACGUCUCAAUCAACUCUCCCGAGGGGGGGAAAACCCCUUUACCCUCACAAUCAACAGCUCGCAGUCAAG | -0.565 |
| GGUCACGUCUCAAUCAACUCAACUCCAGGAGUUUACUCCUGCUAUCUCAACAGCUCGCAGUCAAG | 0.0483 |
| GGUCACGUCUCAAUCAACUCUAAAGAGGGGGGGAAAACCCCUUUACCCUCAACUUCAACAGCUCGCAGUCAAG | -0.148 |

| Sequence | binding signal (log2 fold change) |
| --- | --- |
| GGUCACGUCUCAAUCAACUCAGUUCCAGGAGUUUCCUCCUGCAUUUUCAACAGCUCGCAGUCAAG | -0.12 |
| GGUCACGUCUCAAUCAACUCAGUCUCCAGGGAAAGCCCUGGUAUAUUCAACAGCUCGCAGUCAAG | 0.113 |
| GGUCACGUCUCAAUCAACUCUAUUCCAGGAGUUUCCUCCUGUAAACUCAACAGCUCGCAGUCAAG | 0.0269 |
| GGUCACGUCUCAAUCAACUCUUCCCCCAGGGAAAGCCCUGGCAUUUUCAACAGCUCGCAGUCAAG | -0.152 |
| GGUCACGUCUCAAUCAACUCCUAAGAGGGGGGGAAAACCCCUUUGCCCUCAUCCUCAACAGCUCGCAGUCAAG | 0.133 |
| GGUCACGUCUCAAUCAACUCCCUAGAGGGGGGGAAAACCCCUUUGCCCUCCAACUCAACAGCUCGCAGUCAAG | 0.245 |
| GGUCACGUCUCAAUCAACUCUACUUCCAGGGAAACCCCUGGCAUUCUCAACAGCUCGCAGUCAAG | 0.0161 |
| GGUCACGUCUCAAUCAACUCUAUUCCAGGAGUUUUCUCCUGCAAACUCAACAGCUCGCAGUCAAG | 0.0585 |
| GGUCACGUCUCAAUCAACUCUUCCUCCAGGGAAACCCCUGGUAAAUUCAACAGCUCGCAGUCAAG | -0.188 |
| GGUCACGUCUCAAUCAACUCUCCAGAGGGGGGGAAAACCCCUUUGCCCUCAUUAUCAACAGCUCGCAGUCAAG | -0.0589 |
| GGUCACGUCUCAAUCAACUCUUCCUCAGGAGUUUCCUCCUGUAAUUUCAACAGCUCGCAGUCAAG | 0.0967 |
| GGUCACGUCUCAAUCAACUCUAUAGAGGGGGGGAAAACCCCUUUGCCCUCAUCCUCAACAGCUCGCAGUCAAG | -0.067 |
| GGUCACGUCUCAAUCAACUCAUCUUCAGGAGUUUACUCCUGCAAUUUCAACAGCUCGCAGUCAAG | -0.00995 |
| GGUCACGUCUCAAUCAACUCUUUCCCCAGGGAAAACCCUGGCAUAUUCAACAGCUCGCAGUCAAG | 0.115 |
| GGUCACGUCUCAAUCAACUCCAUAGAGGGGGGGAAAACCCCUUUACCCUCACUAUCAACAGCUCGCAGUCAAG | -0.000467 |
| GGUCACGUCUCAAUCAACUCUACUCCAGGAGUUUUCUCCUGCAAUGUCAACAGCUCGCAGUCAAG | 0.12 |
| GGUCACGUCUCAAUCAACUCAUACGAGGGGGGGAAAACCCCUUUACCCUCAAAAUCAACAGCUCGCAGUCAAG | -0.456 |
| GGUCACGUCUCAAUCAACUCUUCUUCAGGAGUUUACUCCUGUUAACUCAACAGCUCGCAGUCAAG | 0.0697 |
| GGUCACGUCUCAAUCAACUCAUCCUCCAGGGAAAGCCCUGGCAAUUUCAACAGCUCGCAGUCAAG | 0.0238 |
| GGUCACGUCUCAAUCAACUCUUCUCCCAGGGAAAGCCCUGGUUUUUUCAACAGCUCGCAGUCAAG | -0.0101 |
| GGUCACGUCUCAAUCAACUCAUUUCCCAGGGAAAGCCCUGGUAAUUUCAACAGCUCGCAGUCAAG | 0.14 |
| GGUCACGUCUCAAUCAACUCAUCGUCAGGAGUUUGCUCCUGUAAUCUCAACAGCUCGCAGUCAAG | 0.196 |
| GGUCACGUCUCAAUCAACUCAUUCUCCAGGGAAACCCCUGGCAUACUCAACAGCUCGCAGUCAAG | 0.0228 |
| GGUCACGUCUCAAUCAACUCAGUUUCAGGAGUUUCCUCCUGCAUUUUCAACAGCUCGCAGUCAAG | -0.0527 |
| GGUCACGUCUCAAUCAACUCCACAGAGGGGGGGAAAACCCCUUUGCCCUCCAUUUCAACAGCUCGCAGUCAAG | -0.287 |

| Sequence | binding signal (log2 fold change) |
| --- | --- |
| GGUCACGUCUCAAUCAACUCAAUCGAGGGGGGGAAAACCCCUUUACCCUCCAAAUCAACAGCUCGCAGUCAAG | 0.111 |
| GGUCACGUCUCAAUCAACUCUUUCUCAGGAGUUUACUCCUGUUUUUUCAACAGCUCGCAGUCAAG | -0.18 |
| GGUCACGUCUCAAUCAACUCUUUUUCCAGGGAAACCCCUGGCGUUUUCAACAGCUCGCAGUCAAG | -0.255 |
| GGUCACGUCUCAAUCAACUCUUCUCCCAGGGAAAACCCUGGCUAUUUCAACAGCUCGCAGUCAAG | 0.248 |
| GGUCACGUCUCAAUCAACUCAAUUCCCAGGGAAAGCCCUGGUUAACUCAACAGCUCGCAGUCAAG | -0.106 |
| GGUCACGUCUCAAUCAACUCAUCGGCCAGGGAAAUCCCUGGGAAUCUCAACAGCUCGCAGUCAAG | 0.0249 |
| GGUCACGUCUCAAUCAACUCUUCGUCAGGAGUUUUCUCCUGCUUAUUCAACAGCUCGCAGUCAAG | -0.0252 |
| GGUCACGUCUCAAUCAACUCAUCCCCAGGAGUUUCCUCCUGUAAAUUCAACAGCUCGCAGUCAAG | 0.282 |
| GGUCACGUCUCAAUCAACUCUAUCUCAGGAGUUUACUCCUGUUAUUUCAACAGCUCGCAGUCAAG | -0.0792 |
| GGUCACGUCUCAAUCAACUCAUCUCCCAGGGAAAGCCCUGGCUUUCUCAACAGCUCGCAGUCAAG | 0.142 |
| GGUCACGUCUCAAUCAACUCAAUCCCAGGAGUUUUCUCCUGUUAUGUCAACAGCUCGCAGUCAAG | 0.131 |
| GGUCACGUCUCAAUCAACUCUUCCUCAGGAGUUUACUCCUGUUAUGUCAACAGCUCGCAGUCAAG | 0.124 |
| GGUCACGUCUCAAUCAACUCAUCUUCAGGAGUUUCCUCCUGUAAAUUCAACAGCUCGCAGUCAAG | 0.0327 |
| GGUCACGUCUCAAUCAACUCUUCUUCCAGGGAAAACCCUGGCAUACUCAACAGCUCGCAGUCAAG | 0.194 |
| GGUCACGUCUCAAUCAACUCUUUUGCAGGAGUUUACUCCUGGUAUUUCAACAGCUCGCAGUCAAG | 0.177 |
| GGUCACGUCUCAAUCAACUCAUCGUCAGGAGUUUACUCCUGUUUAUUCAACAGCUCGCAGUCAAG | 0.0497 |
| GGUCACGUCUCAAUCAACUCUUCUCCAGGAGUUUACUCCUGUUAUUUCAACAGCUCGCAGUCAAG | 0.116 |
| GGUCACGUCUCAAUCAACUCCAACGAGGGGGGGAAAACCCCUUUGCCCUCAAAUUCAACAGCUCGCAGUCAAG | -0.264 |
| GGUCACGUCUCAAUCAACUCAAGUCCCAGGGAAACCCCUGGCAUAUUCAACAGCUCGCAGUCAAG | -0.146 |
| GGUCACGUCUCAAUCAACUCAUCCUCAGGAGUUUUCUCCUGCAAAUUCAACAGCUCGCAGUCAAG | 0.14 |
| GGUCACGUCUCAAUCAACUCAGUCCCAGGAGUUUACUCCUGCUUUUUCAACAGCUCGCAGUCAAG | -0.0813 |
| GGUCACGUCUCAAUCAACUCCUAAGAGGGGGGGAAAACCCCUUUGCCCUCACCGUCAACAGCUCGCAGUCAAG | 0.325 |
| GGUCACGUCUCAAUCAACUCUACUUCCAGGGAAAUCCCUGGUAAACUCAACAGCUCGCAGUCAAG | 0.283 |
| GGUCACGUCUCAAUCAACUCUUUUCCCAGGGAAACCCCUGGCAAUCUCAACAGCUCGCAGUCAAG | 0.113 |

Reference: paper PMC5892938
